Experimental data taken from PubChem BioAssay AID686978 (National Center for Advancing Translational Sciences (NCATS), 2013).
Among all 420,000 compounds or so, about 64,000 (15%) were called active. This list was built around the results that the source calls inconclusive (neither active nor inactive); the mix of calls is not that of the screen. The call rests on the fitted dose curve; in most records, active means well fitted inhibition curve with a large enough effect; inconclusive means small, poorly fitted or top-dose-only effect; inactive means flat fitted curve, though single readings scatter. Potencies of inconclusive entries are left out as doubtful fits.

Assay: qHTS for Inhibitors of human tyrosyl-DNA phosphodiesterase 1 (TDP1): qHTS in cells in absence of CPT; further: nearly all actives have a fitted effect of over 55% in size
Settings: DT40 Tdp1-/- hTDP1 cells, no CPT, ATP luminescence, 48 h; activity change, negative = growth inhibition: at 46.2 µM (top of the series) unless noted
Procedure, shortened: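 DT40 Tdp1-/-;hTDP1 cells, no CPT (DMSO vehicle only), 400 cells/well; compounds pin-transferred; ≥48 hr, 37 °C; CellTiter-Glo 30 min RT dark, luminescence read.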
On the % scale 0 is the no-effect control and ±100 the full control effect; potency means the concentration at half of the fitted maximal effect; tags describe the fitted curve by direction and shape.

| Compound | Potency | activity change, negative = growth inhibition |
| --- | --- | --- |
| CCCNC(=O)C1(C)CCCN(C(=O)c2oc3ccccc3c2C)C1 (stereo unspecified) | inconclusive [inhibitor, single point] | – |
| COc1ccc(-c2c(C)nn(-c3ccccc3)c2NC(C)=O)cc1OC | – | inactive: 19% |
| CCOc1ccccc1C1C(C(=O)Nc2ccccc2)=C(C)Nc2nc(-c3ccccc3)nn21 (stereo unspecified) | inconclusive [inhibitor, single point] | – |
| Cc1ccc2nsnc2c1S(=O)(=O)Nc1cccc2nsnc12 | – | inconclusive: -31.1% [inhibitor] |
| c1csc(C2=NNC(=NC3CCCCC3)SC2)c1 | active: 23.1 µM | – |
| O=C(NC12CC3CC(CC(C3)C1)C2)c1c(Cl)cccc1Cl | – | inactive: -0.463% |
| CC1CCC(NC(=O)c2ccc3c(c2)N(Cc2ccccc2F)C(=O)c2ccccc2S3(=O)=O)CC1 (stereo unspecified) | inconclusive [inhibitor, partial curve] | – |
| CCc1cc(CNC(=O)CC2C(=O)NCCN2Cc2ccc(-c3ccccc3)cc2)on1 (stereo unspecified) | inconclusive [inhibitor, single point] | – |
| COc1ccc(-n2c(SCc3ccc([N+](=O)[O-])cc3)nnc2-c2ccc(C)cc2)cc1 | inconclusive [inhibitor, single point] | – |
| CCOc1ccccc1Oc1ncnc2c1oc1ccccc12 | active: 20.6 µM | – |
| Cc1ccc(S(=O)(=O)Nc2ccc(-c3ccc(N4CCCCCC4)nn3)cc2)c(C)c1 | inconclusive [inhibitor, single point] | – |
| CCOc1ccccc1CNCc1c(C(=O)O)n(Cc2ccccc2)c2cc(OC)ccc12 | active: 13 µM | – |
| Cn1nc(C(=O)Oc2cc(=O)n(C)c3ccccc23)c2ccccc2c1=O | inconclusive [inhibitor, single point] | – |
| CCOC(=O)c1cc(C)n(CC2CCC(C(=O)Nc3cccc(C(C)=O)c3)CC2)c1C (stereo unspecified) | active: 25.9 µM | – |
| COc1ccc(CCCc2nnc(SCC(=O)Nc3cc(C)c(C)cc3Br)o2)cc1 | inconclusive [inhibitor, partial curve, poor fit] | – |
| Cc1ccccc1/C=C1\C(=O)Nc2ccc(F)cc21 | inconclusive [inhibitor, single point] | – |
| COC(=O)[C@]12CCCCC=C1N(CCC1=CCCCC1)C(=O)[C@H](CC(=O)NCc1ccccc1)C2 | inconclusive [inhibitor, single point] | – |
| COc1ccc(Cl)cc1Cn1c(C)c(C(=O)NCc2cccc(C(F)(F)F)c2)sc1=O | inconclusive [inhibitor, single point] | – |
| N#Cc1ccccc1-n1c(N)c(C(=O)N2CCCC2)sc1=S | inconclusive [inhibitor, partial curve, poor fit] | – |
| CCOC(=O)[C@H]1[C@H]2COc3ccc(OC)cc3[C@@H]2N2C(=O)c3cc(C)ccc3NC(=O)[C@@]12C | – | inactive: 0.751% |
| COc1ccc([C@H]2CC(=O)C=C(c3ccccc3)C2)cc1OC | inconclusive [inhibitor, single point] | – |
| C[C@@H](C(=O)N1CCN(Cc2ccc3c(c2)OCO3)CC1)n1nnc2ccccc2c1=O | inconclusive [inhibitor, single point] | – |
| O=C(NC(=S)NCCC1=CCCCC1)c1cncc(Br)c1 | – | inactive: -6.68% |

| Compound | Potency | activity change, negative = growth inhibition |
| --- | --- | --- |
| CCOC(=O)C1=C(C)NC(=O)NC1c1ccc(-c2ccc(Cl)cc2)o1 (stereo unspecified) | – | inconclusive: -36.2% [inhibitor] |
| CCCN(CCC)CC(O)Cn1c2ccccc2c2ccccc21 (stereo unspecified) | inconclusive [inhibitor, single point] | – |
| O=C(c1ccco1)N1CCN(S(=O)(=O)c2ccc3c(c2)CCN3C(=O)C2CC2)CC1 | – | inconclusive: -32.1% [inhibitor] |
| CCn1c(-c2ccccc2F)nc2cc(C(=O)N3CCNC(=O)C3CC(=O)OC)cc(NC(C)=O)c21 (stereo unspecified) | – | inactive: 0.895% |
| Cc1ccnc(NC(=O)c2cc([N+](=O)[O-])cc([N+](=O)[O-])c2)c1 | – | inactive: -7.31% |
| Cc1ccc(NCc2cc3cc4c(cc3n(CC(=O)Nc3ccc(C)cc3)c2=O)OCCO4)cc1 | active: 8.2 µM | – |
| CCOC(=O)N1CCN(C(=O)C2COc3ccccc3O2)CC1 (stereo unspecified) | – | inactive: -11.9% |
| CCOc1ccccc1NCc1nnc2n1CCCCC2 | – | inactive: -8.02% |
| C=C1C(=O)OC2C1CC/C(C)=C/CCC1(C)OC21 (stereo unspecified) | active: 2.91 µM | – |
| COc1ccc(NC(=O)c2c(C)noc2-c2snnc2C)cc1 | active: 20.6 µM | – |
| Cc1cc2nc(-c3ccco3)c(Cc3ccccc3C(F)(F)F)n2c(C)c1Br | inconclusive [inhibitor, single point] | – |
| CCOC(=O)c1cnc2c(ccc3ccccc32)c1N | inconclusive [inhibitor, single point] | – |
| COC(=O)[C@]1(Cc2ccccc2)N[C@H](CN(C)C(=O)Nc2ccc(Cl)cc2)[C@@H]2C(=O)N(C)C(=O)[C@@H]21 | – | inactive: -27.2% |
| CC(C)Nc1nc(Oc2ccc(Cl)cc2Cl)cc(C(F)(F)F)n1 | – | inactive: -0.981% |
| COc1ccc(OC)c(C(=O)c2ccc([N+](=O)[O-])cc2)c1 | inconclusive [inhibitor, partial curve] | – |
| O=C(Cc1c[nH]c2ccccc12)NCc1ccc(Cl)cc1 | inconclusive [inhibitor, single point] | – |
| COc1ccc(C#Cc2c(C=O)n(C)c3ccccc23)cc1 | inconclusive [inhibitor, single point] | – |
| COc1ccc(C2=CC(c3c(C)nn(-c4ccccc4)c3Cl)n3nnnc3N2)cc1OC (stereo unspecified) | active: 14.6 µM | – |
| CC(C)CN(CC(C)C)c1ccc(/C=C/c2ccnc3ccccc23)cc1 | active: 17.8 µM | – |
| O=C(OCC(=O)N(Cc1ccccc1)Cc1ccccc1)c1ccccc1NCCO | inconclusive [inhibitor, partial curve] | – |
| Cc1cc(OCC(O)CN2CCOCC2)cc(C)c1Cl (stereo unspecified) | – | inactive: -19.9% |
| CCOc1ncccc1C(=O)Nc1ccc(Cl)cc1 | inconclusive [inhibitor, single point] | – |
| CC(C)(C)c1csc(NC(=O)CCc2ccccc2)n1 | inconclusive [inhibitor, single point] | – |
